The other results are listed elsewhere or left out.
tested on: T1, C. trachomatis L2/434/Bu expressing GFP (CTL2-GFP); design: species or system HeLa; C. trachomatis total inclusion area by high-content imaging, normalised to DMSO; settings: total inclusion area; 28.5 h, 10 µM; inhibitor
T1 construct: L2/434/Bu GFP intracellular growth in HeLa cells
In short: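 Post-fluorescence-read fixation, DNA staining with Hoechst and high-content imaging; GFP inclusion area and number per well, and nuclei counts, used as proxies for bacterial growth and host viability.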

Row | Compound | % of control remaining
1 | CCCCC(NC(=O)c1cc2ccccc2[nH]1)C(=O)O (stereo not shown) [CBK286647] | 91.6573
2 | Cn1ccnc1C(NC(=O)c1ccncc1)c1ccc(F)c(F)c1 (stereo not shown) [CBK283808] | 60.803
3 | CN1CCc2c(c(NCC3CCCO3)nc3[nH]nc(N)c23)C1 (stereo not shown) [CBK287955] | 97.5841
4 | O=C(O)C1CCCCC1C(=O)Nc1ccc(S(=O)(=O)N2CCOCC2)cc1 (stereo not shown) [CBK268010] | 109.017
5 | O=S(=O)(Nc1ccc(-c2nnn[nH]2)cc1)c1ccc(F)c(C(F)(F)F)c1 [CBK154759] | 113.472
6 | Cc1cc(NC2CC3CCCC(C2)N3C)nc(N)n1 (stereo not shown) [CBK170333] | 47.41
7 | CC(=O)N1CCC2(C/C=C/C[C@H]3CN(Cc4nccs4)CC[C@H]3NC(=O)CNC2=O)CC1 [CBK292169] | 89.3911
8 | COc1ccc(CN2Cc3cccc(C(=O)O)c3C2=O)cc1OC [CBK291237] | 115.592
9 | COCCNC(=O)c1nn(-c2cccc(C(C)C)c2)cc1O [CBK304884] | 80.8029
10 | O=C(Nc1sc2c(c1C(=O)NCCc1ccccc1)CCC2)c1sc2ccccc2c1Cl [CBK266379] | 107.841
11 | O=C1NCC2(C/C=C/CCOc3ccccc31)CCN(C(=O)c1ccncc1)CC2 [CBK292018] | 95.427
12 | O=C(CN1CCCc2ccccc21)c1ccsc1 [CBK138333] | 102.206
13 | Cc1ccc(-c2ccc(N3CCN(C(=O)c4ccco4)CC3)nc2)cc1C [CBK037775] | 67.8877
14 | CSCCC(C(=O)O)n1c(S)nnc1-c1ccc2ccccc2n1 (stereo not shown) [CBK269230] | 92.8927
15 | Cc1ccc(N2NC(=O)/C(=C/c3ccc(-c4ccc5c(c4)C(=O)NC5=O)o3)C2=O)cc1C [CBK262963] | 76.6415
16 | OCCN(Cc1cccnc1)Cc1cccn1-c1ccc(F)cc1F [CBK283042] | 116.326
17 | CN1CCN(NC(=O)CN(C)S(=O)(=O)c2cc(Cl)ccc2Cl)CC1 [CBK267366] | 109.071
18 | CCNc1cc(-c2ccc(Cl)cc2)ncn1 [CBK090880] | 114.553
19 | COCCNc1nc(-c2ccccc2OC)ccc1C(=O)NCCNC(C)=O [CBK105974] | 101.604
20 | Cc1csc2c(N3CCCC3CC(=O)c3cnn(C)c3)ncnc12 (stereo not shown) [CBK304429] | 58.4382
21 | Cn1nccc1NS(=O)(=O)c1cc(C(=O)O)c(Cl)cc1F [CBK062712] | 82.7654
22 | Cc1cccn2cc(CNC(=O)C(C)(C)C)nc12 [CBK304348] | 80.4376
23 | O=C1CC(=O)N(Cc2ccc(F)cc2)C(=O)N1 [CBK291156] | 127.955
24 | COC(=O)C1=C(C(=O)OC)SC(=C2C(=S)C(C)(C)N(C(=O)c3ccc4ccccc4c3)c3cc(C)ccc32)S1 [CBK261622] | 91.3385
25 | COC(=O)COc1ccc(C2Nc3c(Cl)ccc(C(=O)O)c3C3C=CCC32)cc1 (stereo not shown) [CBK268961] | 92.4281
26 | COC(=O)c1ccc(S(=O)(=O)C(F)(F)F)cc1N [CBK018172] | 65.2845
27 | CCN(CC)C(=O)c1[nH]c2ccccc2c1NS(=O)(=O)c1cc(Br)ccc1OC [CBK050113] | 111.272

Row | Compound | % of control remaining
28 | O=C(CCCN1C(=O)c2ccccc2C1=O)Oc1ccc(-c2ccccc2)cc1 [CBK267144] | 115.949
29 | CCC(NC(=O)Nc1cc(N2CCOCC2)ccc1Cl)c1nc(C)no1 (stereo not shown) [CBK306526] | 97.4814
30 | O=C(COc1ccccc1)N1CCC(c2cccc(Cc3ccccc3F)n2)CC1 [CBK286211] | 100.77
31 | CN(C(=O)C1CCN(S(=O)(=O)c2cn(C)cn2)CC1)C(c1ccc(F)cc1)c1ccccn1 (stereo not shown) [CBK060229] | 106.668
32 | O=C(Nc1cccc2cccnc12)c1ccc(Cl)c(Cl)c1 [CBK261318] | 97.0852
33 | CCN1CCC2(CC1)NC(=O)Cc1cc(OC)c(OC)c(OC)c12 [CBK039868] | 100.726
34 | CN(CCO)C(=O)CCn1c(C(F)F)cc2cccnc21 [CBK282805] | 89.5163
35 | CC(=O)NCC1CN(c2ccc3c(c2)CCN3C(=O)OC(C)(C)C)C(=O)O1 (stereo not shown) [CBK012600] | 63.6835
36 | CCc1cc(Br)ccc1S(=O)(=O)NCCc1cccs1 [CBK045033] | 77.7038
37 | FC(F)(F)c1cccnc1Sc1nc[nH]n1 [CBK115213] | 89.6404
38 | CC(C)S(=O)(=O)n1ccn(-c2ccc(N(C)C)cc2)c1=O [CBK106600] | 81.4734
39 | CC(C)NC(=O)N1CCN2C(=O)c3cc(-c4ccc(Cl)cc4)ccc3NC(=O)[C@H]2C1 [CBK289596] | 100.121
40 | O=C(NC(=S)Nc1cccc(Cl)c1)c1cncc(Br)c1 [CBK264618] | 89.2311
41 | COc1ccc(-c2nc(-c3ccncc3)ncc2C(=O)NC2CCCCC2)cc1 [CBK291111] | 137.443
42 | O=C(Cn1cccc2cc(C3CCCNC3)nc1-2)N1CCCC1 (stereo not shown) [CBK285086] | 101.931
43 | CCOc1ccc(C(=O)C2=C(O)C(=O)N(CCN(C)C)C2c2ccc(N(C)C)cc2)c(C)c1 (stereo not shown) [CBK264603] | 110.448
44 | CSc1nsc(SCC(=O)OC2CC3CCC2(C)C3(C)C)n1 (stereo not shown) [CBK268941] | 89.952
45 | COCCC(=O)Nc1ccc(N2CCNCC2)nc1 [CBK004749T] | 81.794
46 | O=C(Cc1ccc(F)cc1)NCc1nnc(-c2cccs2)o1 [CBK284640] | 108.529
47 | O=C(Cc1ccc(Cl)c(Cl)c1)N1CCCC2(CCN(Cc3ccccc3)C2)C1 (stereo not shown) [CBK136872] | 98.8257
48 | COCCNc1cc(-c2ccco2)ncn1 [CBK090796] | 83.9828
49 | CC(C)C(=O)N1CC2(CCN(CCS(=O)(=O)c3ccccc3)CC2)c2ccccc21 [CBK126726] | 57.8204
50 | O=C1NCC2(CCN(C(=O)C3CC3)CC2)Oc2ccccc21 [CBK282918] | 77.9105
51 | Nc1ncc(-c2ccco2)nc1N1CCOCC1 [CBK063456] | 74.5403
52 | CCNS(=O)(=O)c1ccc(NS(=O)(=O)c2cc(C(=O)O)ccc2C)cc1 [CBK295296] | 92.2966
53 | N#Cc1ccc(NCC(=O)Nc2ncn(Cc3cccnc3)n2)cc1 [CBK306343] | 48.9476
54 | Cc1ccc(NC(=O)Nc2ccc3cc(Br)cnc3n2)c(C)c1 [CBK063269] | 100.954

Row | Compound | % of control remaining
55 | CC(CNC(=O)CCc1cn(C)c2ccccc12)N1CCOCC1 (stereo not shown) [CBK281996] | 111.327
56 | COc1c(C)cc(Br)cc1C(=O)NC(=S)Nc1ccccc1N1CCN(C)CC1 [CBK267855C] | 60.737
57 | Cc1cc(C)c(-n2cccn2)c(CN2CCC(CO)C2)c1 (stereo not shown) [CBK282915] | 100.493
58 | Cc1cc(NS(=O)(=O)c2ccc(OCCNS(C)(=O)=O)cc2)no1 [CBK268530] | 162.35
59 | CN(CCOc1ccccc1)c1nccnc1N1CCNCC1 [CBK000035F] | 88.9611
60 | CC(=O)Nc1ccc(CN(C)c2c(C)nc3c(OCC4CCCCC4)cccn23)cc1 [CBK147379] | 89.7197
61 | O=C(O)CSC1c2ccccc2Oc2ccc(F)cc21 (stereo not shown) [CBK266462] | 94.7293
62 | Cc1ccc(NC(=O)C2CCCN2S(=O)(=O)c2ccc(F)cc2)cc1F (stereo not shown) [CBK110164] | 40.6127
63 | Cc1ccc(-c2csc(NC(=O)CS(=O)(=O)c3ccccc3)n2)cc1 [CBK287707] | 98.8899
64 | CNc1cc(N2CCN(S(=O)(=O)N(C)C)CC2)ccc1[N+](=O)[O-] [CBK269311] | 97.8453
65 | Cc1cc(Br)ccc1NC(=O)C(=O)NC1CC1 [CBK269284] | 95.7905
66 | O=C(O)CN1CCC(Oc2nccnc2OCc2ccc(Cl)c(Cl)c2)CC1 [CBK144443] | 97.5305
67 | Cc1cccc(Cc2cccc(C3CCCN(S(=O)(=O)c4cn(C)nc4C)C3)n2)c1 (stereo not shown) [CBK286131] | 62.5561
68 | COc1cc([N+](=O)[O-])ccc1NC(=O)CN(C)S(=O)(=O)c1ccc2ccccc2c1 [CBK267387] | 101.527
69 | O=C(O)c1sccc1S(=O)(=O)Nc1ccc(Cc2nc3ccccc3s2)cc1 [CBK295286] | 109.297
70 | c1cncc(-c2ncc(-c3ccco3)c(-c3ccco3)n2)c1 [CBK284503] | 66.1944
71 | O=C(Nc1cccc2[nH]ccc12)c1cccc(F)c1Cl [CBK159638] | 82.9759
72 | CN1CCN(c2cc(CNC(=O)c3cc(O)nc4ccccc34)ccn2)CC1 [CBK279658] | 102.159
73 | c1ccc2c(-c3cn4ccnc4c(Nc4ccc5cn[nH]c5c4)n3)cccc2c1 [CBK066346] | 87.8661
74 | CCCn1c(SCC(=O)NCc2ccc(OC)cc2)n[nH]c1=O [CBK297549] | 110.575
75 | COc1cc(CNC(=O)NC(=O)C2CCN(CCCc3ccc(Cl)c(Cl)c3)CC2)cc(OC)c1OC [CBK034858] | 106.768
76 | COc1ccccc1N1C(=O)CC(SC(=N)N/N=C(\C)c2ccc(O)cc2)C1=O (stereo not shown) [CBK262766] | 102.954
77 | O=C(c1ccc(O)nc1)N1CCN(Cc2cc(=O)n3ccsc3n2)CC1 [CBK306098] | 60.7642
78 | CN1C(=O)CC2(C1=O)C(=O)N(Cc1nc(-c3ccc(Cl)cc3)no1)c1ccc(F)cc12 (stereo not shown) [CBK075442] | 96.1998
79 | NS(=O)(=O)c1ccc(NC(=O)CCCOc2ccc(Cl)cc2Cl)cc1 [CBK261536] | 117.063
